In publication PMC9911399, “Two distinct binding modes provide the RNA-binding protein RbFox with extraordinary sequence specificity”:
Numbering of substitutions follows the chain as printed; changes in the protein carry UniProt numbers. The list shows a part of the results.

T1: RBFOX1 RRM (Homo sapiens, UniProt Q9NWB1 109-208)
T1 sequence: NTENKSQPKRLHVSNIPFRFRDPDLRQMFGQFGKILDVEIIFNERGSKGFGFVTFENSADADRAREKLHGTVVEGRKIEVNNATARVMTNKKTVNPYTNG

B1: CCACGCU (DNA:RNA)
RNA: GGGAGACCGGAAUUCAGAUUGUCCCCACGCUUUAAAUCCCGUCGUAGCCACCA
DNA 1: CAATCTGAATTCCGGTCTCCC
DNA 2: TGGTGGCTACGACGGGATT
B2: AUUUGCG (DNA:RNA)
RNA: B1 RNA with C25A, C26U, A27U, C28U, U31G
DNA 1: CAATCTGAATTCCGGTCTCCC
DNA 2: TGGTGGCTACGACGGGATT
B3: CCUUUAU (DNA:RNA)
RNA: B1 RNA with A27U, C28U, G29U, C30A
DNA 1: CAATCTGAATTCCGGTCTCCC
DNA 2: TGGTGGCTACGACGGGATT
B4: ACGCGAG (DNA:RNA)
RNA: B1 RNA with C25A, A27G, C30A, U31G
DNA 1: CAATCTGAATTCCGGTCTCCC
DNA 2: TGGTGGCTACGACGGGATT
B5: CGCGUUG (DNA:RNA)
RNA: B1 RNA with C26G, A27C, C28G, G29U, C30U, U31G
DNA 1: CAATCTGAATTCCGGTCTCCC
DNA 2: TGGTGGCTACGACGGGATT
B6: CGUGGGU (DNA:RNA)
RNA: B1 RNA with C26G, A27U, C28G, C30G
DNA 1: CAATCTGAATTCCGGTCTCCC
DNA 2: TGGTGGCTACGACGGGATT
B7: AAGUUGA (DNA:RNA)
RNA: GGGAGACCGGAAUUCAGAUUGUCCAAGUUGAUUAAAUCCCGUCGUAGCCACCA
DNA 1: CAATCTGAATTCCGGTCTCCC
DNA 2: TGGTGGCTACGACGGGATT
B8: ACUCAAC (DNA:RNA)
RNA: B1 RNA with C25A, A27U, G29A, C30A, U31C
DNA 1: CAATCTGAATTCCGGTCTCCC
DNA 2: TGGTGGCTACGACGGGATT
B9: UGGGGAG (DNA:RNA)
RNA: B7 RNA with A25U, A26G, U28G, U29G, G30A, A31G
DNA 1: CAATCTGAATTCCGGTCTCCC
DNA 2: TGGTGGCTACGACGGGATT
B10: CAACCUC (DNA:RNA)
RNA: B1 RNA with C26A, G29C, C30U, U31C
DNA 1: CAATCTGAATTCCGGTCTCCC
DNA 2: TGGTGGCTACGACGGGATT
B11: GCGACUC (DNA:RNA)
RNA: B7 RNA with A25G, A26C, U28A, U29C, G30U, A31C
DNA 1: CAATCTGAATTCCGGTCTCCC
DNA 2: TGGTGGCTACGACGGGATT
B12: GUAAAGC (DNA:RNA)
RNA: B7 RNA with A25G, A26U, G27A, U28A, U29A, A31C
DNA 1: CAATCTGAATTCCGGTCTCCC
DNA 2: TGGTGGCTACGACGGGATT
B13: GUGAUCG (DNA:RNA)
RNA: B7 RNA with A25G, A26U, U28A, G30C, A31G
DNA 1: CAATCTGAATTCCGGTCTCCC
DNA 2: TGGTGGCTACGACGGGATT
B14: GGUUGAC (DNA:RNA)
RNA: B7 RNA with A25G, A26G, G27U, U29G, G30A, A31C
DNA 1: CAATCTGAATTCCGGTCTCCC
DNA 2: TGGTGGCTACGACGGGATT
B15: ACAUGUC (DNA:RNA)
RNA: B1 RNA with C25A, C28U, C30U, U31C
DNA 1: CAATCTGAATTCCGGTCTCCC
DNA 2: TGGTGGCTACGACGGGATT
B16: CCAAGCG (DNA:RNA)
RNA: B1 RNA with C28A, U31G
DNA 1: CAATCTGAATTCCGGTCTCCC
DNA 2: TGGTGGCTACGACGGGATT
B17: CUAACUA (DNA:RNA)
RNA: B1 RNA with C26U, C28A, G29C, C30U, U31A
DNA 1: CAATCTGAATTCCGGTCTCCC
DNA 2: TGGTGGCTACGACGGGATT
B18: GUCAAAC (DNA:RNA)
RNA: GGGAGACCGGAAUUCAGAUUGUCCGUCAAACUUAAAUCCCGUCGUAGCCACCA
DNA 1: CAATCTGAATTCCGGTCTCCC
DNA 2: TGGTGGCTACGACGGGATT
B19: AGGUAAU (DNA:RNA)
RNA: B7 RNA with A26G, U29A, G30A, A31U
DNA 1: CAATCTGAATTCCGGTCTCCC
DNA 2: TGGTGGCTACGACGGGATT
B20: CGCCACG (DNA:RNA)
RNA: B1 RNA with C26G, A27C, G29A, U31G
DNA 1: CAATCTGAATTCCGGTCTCCC
DNA 2: TGGTGGCTACGACGGGATT
B21: CCUUCCU (DNA:RNA)
RNA: B1 RNA with A27U, C28U, G29C
DNA 1: CAATCTGAATTCCGGTCTCCC
DNA 2: TGGTGGCTACGACGGGATT
B22: GUAGAGU (DNA:RNA)
RNA: B18 RNA with C27A, A28G, A30G, C31U
DNA 1: CAATCTGAATTCCGGTCTCCC
DNA 2: TGGTGGCTACGACGGGATT
B23: CCAGUCU (DNA:RNA)
RNA: B1 RNA with C28G, G29U
DNA 1: CAATCTGAATTCCGGTCTCCC
DNA 2: TGGTGGCTACGACGGGATT
B24: AGCAAAC (DNA:RNA)
RNA: B18 RNA with G25A, U26G
DNA 1: CAATCTGAATTCCGGTCTCCC
DNA 2: TGGTGGCTACGACGGGATT
B25: GGUAGCA (DNA:RNA)
RNA: B1 RNA with C25G, C26G, A27U, C28A, U31A
DNA 1: CAATCTGAATTCCGGTCTCCC
DNA 2: TGGTGGCTACGACGGGATT
B26: GUCUAGG (DNA:RNA)
RNA: B18 RNA with A28U, A30G, C31G
DNA 1: CAATCTGAATTCCGGTCTCCC
DNA 2: TGGTGGCTACGACGGGATT
B27: CGUUGAA (DNA:RNA)
RNA: B7 RNA with A25C, A26G, G27U, U29G, G30A
DNA 1: CAATCTGAATTCCGGTCTCCC
DNA 2: TGGTGGCTACGACGGGATT
B28: AUCAAUG (DNA:RNA)
RNA: B18 RNA with G25A, A30U, C31G
DNA 1: CAATCTGAATTCCGGTCTCCC
DNA 2: TGGTGGCTACGACGGGATT
B29: CCCCAGC (DNA:RNA)
RNA: B1 RNA with A27C, G29A, C30G, U31C
DNA 1: CAATCTGAATTCCGGTCTCCC
DNA 2: TGGTGGCTACGACGGGATT
B30: CGGCGUC (DNA:RNA)
RNA: B1 RNA with C26G, A27G, C30U, U31C
DNA 1: CAATCTGAATTCCGGTCTCCC
DNA 2: TGGTGGCTACGACGGGATT
B31: AUUACUU (DNA:RNA)
RNA: B18 RNA with G25A, C27U, A29C, A30U, C31U
DNA 1: CAATCTGAATTCCGGTCTCCC
DNA 2: TGGTGGCTACGACGGGATT

Each binder was assayed against T1, RBFOX1 RRM (assay: EMSA; HiTS-Eq, 1 nM pool, 10 min; buffer printed only for the single-RNA assays: 10 mM Tris pH 7.5, 150 mM NaCl, 3.4 mM EDTA, 0.001% NP-40, 30 C). Conditions: tags: His6 N-terminal (pET28a); label: 5' 32P.
Summary of the method: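 Relative association constants, normalised to the cognate motif, were derived by comparing read counts of each RNA species with those of the control reaction. The RNA sequenced was the free fraction, separated by 8% native PAGE after a 10 min equilibration in 50 µL of 1 nM 5′-radiolabelled RNA (7 randomized nucleotides) with increasing concentrations of purified wild-type or mutant RbFox RRM.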

| Binder | binding signal |
| --- | --- |
| B1 | 0.00361 KA relative to UGCAUGU |
| B2 | 0.0185 KA relative to UGCAUGU |
| B3 | 0.00554 KA relative to UGCAUGU |
| B4 | 0.0108 KA relative to UGCAUGU |
| B5 | 0.0136 KA relative to UGCAUGU |
| B6 | 0.0119 KA relative to UGCAUGU |
| B7 | 0.015 KA relative to UGCAUGU |
| B8 | 0.00166 KA relative to UGCAUGU |
| B9 | 0.0199 KA relative to UGCAUGU |
| B10 | 0.00479 KA relative to UGCAUGU |
| B11 | 0.0115 KA relative to UGCAUGU |
| B12 | 0.00707 KA relative to UGCAUGU |
| B13 | 0.0195 KA relative to UGCAUGU |
| B14 | 0.00376 KA relative to UGCAUGU |
| B15 | 0.00443 KA relative to UGCAUGU |
| B16 | 0.00169 KA relative to UGCAUGU |

| Binder | binding signal |
| --- | --- |
| B17 | 0.00225 KA relative to UGCAUGU |
| B18 | 0.00195 KA relative to UGCAUGU |
| B19 | 0.00631 KA relative to UGCAUGU |
| B20 | 0.0114 KA relative to UGCAUGU |
| B21 | 0.00632 KA relative to UGCAUGU |
| B22 | 0.0112 KA relative to UGCAUGU |
| B23 | 0.00457 KA relative to UGCAUGU |
| B24 | 0.00205 KA relative to UGCAUGU |
| B25 | 0.0139 KA relative to UGCAUGU |
| B26 | 0.0126 KA relative to UGCAUGU |
| B27 | 0.0143 KA relative to UGCAUGU |
| B28 | 0.00341 KA relative to UGCAUGU |
| B29 | 0.00528 KA relative to UGCAUGU |
| B30 | 0.019 KA relative to UGCAUGU |
| B31 | 0.00236 KA relative to UGCAUGU |
